# Assay results reported in the supplement of paper PMC12217912.
# Some of the results follow. The full chains were built here from the parent and the listed change. Values near 0.05 are background.
# B1: TEV protease; numbered along this chain (parent)
# chain: MGESLFKGPRDYNPISSSICHLTNESDGHTTSLYGIGFGPFIITNKHLFRRNNGTLVVQSLHGVFKVKDTTTLQQHLVDGRDMIIIRMPKDFPPFPQKLKFREPQREERICLVTTNFQTKSMSSMVSDTSCTFPSGDGIFWKHWIQTKDGQCGSPLVSTRDGFIVGIHSASNFTNTNNYFTSVPKNFMELLTNQEAQQWVSGWRLNADSVLWGGHKVFMVKPEEPFQPVKEATQL
# Variants of: B1
# Test: raw area under fraction-flipped curve 0-4 h after induction (AUC4h, not background-subtracted), DNA-recorder readout of cleavage of the substrate (dimensionless); higher = more cleavage of the substrate by the protease variant
# Details: temperature: 34 °C; time window: 0-4 h after rhamnose induction
# Method: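 In vivo DNA recorder in E. coli TOP10(DE3) ΔrhaA at 34 °C. Each TEVp single-site mutant (parent TEVp 0) is paired with a single-site variant of the 7-mer TEVs (canonical ENLYFQ|S). The substrate sits between flexible linkers in a Bxb1-sfGFP-TEVs-SsrA fusion, so cleavage stabilises Bxb1 and speeds flipping of a recombination array, read by NGS. The value is the raw area under the fraction-flipped curve over 0-4 h after rhamnose induction (AUC4h), with ≥20 reads per time point. It is not background-subtracted; inactive controls average about 0.047.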
# 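Also: Bxb1 expression induced with 0.2% (w/v) L-rhamnose at OD600 near 0.5, cultures sampled hourly, flipped fraction per protease–substrate barcode pair counted by paired-end Illumina sequencing.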
Variant,area with substrate ANLYFQS,area with substrate CNLYFQS,area with substrate GNLYFQS,area with substrate HNLYFQS,area with substrate LNLYFQS,area with substrate MNLYFQS,area with substrate QNLYFQS,area with substrate RNLYFQS,area with substrate TNLYFQS,area with substrate WNLYFQS,area with substrate YNLYFQS,area with substrate FNLYFQS,area with substrate KNLYFQS,area with substrate PNLYFQS,area with substrate INLYFQS,area with substrate DNLYFQS,area with substrate SNLYFQS,area with substrate VNLYFQS,area with substrate NNLYFQS
D208V,0.0857,0.0537,0.0553,0.0557,0.0704,0.0576,0.0588,0.0607,0.0575,0.082,0.0646,,,,,,,,
K216F,0.0321,0.068,,0.0537,,,,,0.062,0.04,0.0489,0.0379,0.0601,0.052,,,,,
K216I,0.08,0.0828,0.0791,,,,,,,,,,0.0669,,0.0512,,,,
V220R,0.0747,0.0586,0.0819,0.0897,0.0601,0.0805,0.0799,,0.0687,0.0714,0.0486,0.0642,0.0584,0.0736,0.0607,0.0699,0.0705,0.07,
K221R,0.0776,0.0677,0.0604,0.0743,0.0606,0.113,,0.0652,0.0724,0.0658,0.0583,0.0751,0.0632,0.0677,0.0866,0.0777,0.0663,0.0613,0.0697
P222H,0.0696,0.0658,0.0584,0.06,0.052,0.0624,,,0.0671,0.0476,0.0668,0.0779,0.0748,0.064,,0.0665,0.0519,,0.0667
E224A,0.0614,0.0655,,0.0598,0.0737,,0.0749,,0.0664,0.0701,0.0693,,0.0669,0.0811,0.065,0.0577,0.0652,0.0802,0.0623
E224S,0.0612,0.0857,,0.0673,0.0757,0.0716,,,0.0437,0.0595,0.0587,0.0658,,0.0781,0.0653,0.117,,,
E224V,0.0634,0.0654,0.0387,0.065,0.0454,0.0559,0.0745,,0.0553,0.0705,0.0542,,0.063,0.0577,0.063,0.0756,0.0646,,0.0726
F226C,0.0669,0.0904,,0.0688,0.0675,,,,0.0665,0.0467,0.0698,0.0527,0.0697,0.119,,0.0959,0.052,,
A232N,0.0469,0.0949,,,0.0721,,0.063,,,0.0615,0.0519,0.0557,,0.065,,0.0789,0.0656,0.0734,
A232S,0.0543,0.0751,,0.066,0.0707,0.0649,0.0846,,,0.0543,,,0.0789,,,,,,0.055
unchanged,0.0664,0.0707,0.0678,0.0642,0.0648,0.0654,0.0672,0.0636,0.0672,0.0612,0.0626,0.0613,0.0682,0.0683,0.0647,0.0807,0.0667,0.0655,0.066
G8P,,0.081,,0.0639,,0.0721,,,,,0.0761,,0.07,,,0.0821,0.0709,0.0423,0.0597
G8S,,0.0475,,0.0475,,,,,0.059,,0.0573,,,0.0675,,,,0.0574,0.0727
S16A,,0.0463,,0.0624,0.0676,,0.0831,,0.0576,0.0648,0.0803,0.0746,0.0678,0.0746,0.0655,0.0684,0.0707,,
S16D,,0.0866,0.0694,0.0549,,,0.0544,,0.0651,0.0417,0.0499,0.0626,0.068,0.0595,0.0609,,0.0718,,0.0532
S16E,,0.0767,0.0606,0.0604,,0.068,0.0668,,0.0572,0.0612,0.0675,,0.0728,0.0745,0.0616,,,0.0696,0.0681
S16G,,0.0689,0.0851,0.065,0.0719,0.0777,,,0.11,0.0621,0.0603,,0.0622,0.0727,0.0734,,0.0663,,
S16N,,0.0612,0.0607,0.0727,0.0593,,0.0523,,0.0468,0.0589,0.0633,0.0564,0.0602,,0.0709,0.0767,0.0648,0.0613,0.0702
S16Q,,0.0765,0.0641,0.0466,0.0632,0.0662,0.0603,,0.0623,0.0612,0.0662,,0.0661,0.0639,0.0622,0.0849,0.0656,0.0583,0.0647
S16V,,0.0675,0.0777,0.0468,0.0553,0.062,,,0.0627,0.0601,0.0701,,,0.0554,0.0649,,,,0.0758
N24C,,0.0638,0.0668,0.0606,0.0713,,0.0606,0.0642,,0.0601,0.06,,,0.0616,0.0539,0.0763,0.0586,0.0716,0.0654
N24D,,0.0523,0.0622,0.0555,0.0569,0.0493,0.0653,,0.0603,0.0529,0.0623,0.054,0.0587,0.0534,0.0542,0.0684,0.0445,0.0553,0.0616
N24Y,,0.0628,,0.0701,0.095,,,,,0.0569,,,0.0734,0.0631,,,0.0601,0.0598,0.0759
S32A,,0.0614,0.0688,0.0595,0.0508,0.0839,0.0617,0.0546,0.0639,0.0703,,0.0764,0.0659,0.0522,0.0675,0.0631,,0.0712,0.0731
S32I,,0.0712,0.0664,,0.0644,0.0635,,,0.0714,0.0554,,,0.0504,0.0652,,,,,
S32M,,0.0552,,0.0608,0.0894,,,,0.0648,,,,,0.0811,0.0964,0.0608,,,
